In publication PMC5681435, “Differential Regulation of G1 CDK Complexes by the Hsp90-Cdc37 Chaperone System” (Cell Reports, 2017):

B1: p16D84N: p16INK4a mutant in which D84 is mutated to an asparagine (protein)
chain: MEPAAGSSMEPSADWLATAAARGRVEEVRALLEAGALPNAPNSYGRRPIQVMMMGSARVAELLLLHGAEPNCADPATLTRPVHNAAREGFLDTLVVLHRAGARLDVRDAWGRLPVDLAEELGHRDVARYLRAAAGGTRGSNHARIDAAEGPSDIPD
B2: p16D108N: p16INK4a mutant, D108 mutated to an asparagine (protein)
chain: MEPAAGSSMEPSADWLATAAARGRVEEVRALLEAGALPNAPNSYGRRPIQVMMMGSARVAELLLLHGAEPNCADPATLTRPVHDAAREGFLDTLVVLHRAGARLDVRNAWGRLPVDLAEELGHRDVARYLRAAAGGTRGSNHARIDAAEGPSDIPD
B3: p16M53I: p16INK4a mutant in which M53 is mutated to an isoleucine (protein)
chain: MEPAAGSSMEPSADWLATAAARGRVEEVRALLEAGALPNAPNSYGRRPIQVMIMGSARVAELLLLHGAEPNCADPATLTRPVHDAAREGFLDTLVVLHRAGARLDVRDAWGRLPVDLAEELGHRDVARYLRAAAGGTRGSNHARIDAAEGPSDIPD

These molecules were tested against CDK6-Cdc37 complex (Homo sapiens, UniProt Q00534). Conditions: HTRF competition, 6 nM GSTCDK6, 500 nM C-Avi Cdc37.
CDK6-Cdc37 complex, sequence (Q00534 whole entry, one chain of several): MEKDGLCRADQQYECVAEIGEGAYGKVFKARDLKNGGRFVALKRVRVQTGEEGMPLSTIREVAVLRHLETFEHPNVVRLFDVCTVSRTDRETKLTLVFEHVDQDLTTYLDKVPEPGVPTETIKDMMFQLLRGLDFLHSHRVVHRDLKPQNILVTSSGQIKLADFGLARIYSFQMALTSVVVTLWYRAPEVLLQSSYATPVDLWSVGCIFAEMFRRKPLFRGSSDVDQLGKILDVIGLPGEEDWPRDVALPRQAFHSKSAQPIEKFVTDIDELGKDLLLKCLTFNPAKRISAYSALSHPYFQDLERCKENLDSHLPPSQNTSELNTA

Row | Molecule | Displacement of Cdc37 from CDK6-Cdc37 complex (in words)
1 | B1 | unable to displace CDK4 or CDK6 from Cdc37
2 | B2 | as effective as wild-type p16INK4a
3 | B3 | as effective as authentic p16INK4a
